First the molecules themselves.
B1: Caulobacter ParB omega fusion; a variant is named by its letters at X, in order, B8GW30 (parent)
chain: MESVVVGEPGMSEGRRGLGRGLSALLGEVDAAPAQAPGEQLGGSREAPIEILQRNPDQPRRTFREEDLEDLSNSIREKGVLQPILVRPSPDTAGEYQIVAGERAWRAAQRAGLKTVPIMVRELDDLAVLEIGIIENVQRADLNVLEEALSYKVLMEKFERTQENIAQTIGKSXSHVANXMRLLXLPDEVQSYLVSGELTAXHARAIAAAADPVALAKQIIEGGLSVRETEALARKAPNLSAGKSKGGRPPRVKDTDTQALESDLSSVLGLDVSIDHRGSTGTLTITYATLEQLDDLCNRLTRGI

The full ranking holds about 81,000 sequences; the median of “one-hybrid fitness for binding parS DNA” is about -0.17, and the highest 2% start at about 0.51. The list shows a part of the results.

The variants in the experiment derive from B1. Kind of experiment: one-hybrid fitness for binding parS DNA (scaled: cognate 1, non-cognate 0); higher = stronger binding. The settings on record: with parS DNA site. The method, boiled down: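 The reporter was HIS3, with the binding site 19 bp from the promoter, in E. coli USO used for bacterial one-hybrid selection of Caulobacter ParB libraries with four specificity codons randomised. Growth was on M9 lacking histidine, with 0.1 mM IPTG and 5 mM 3-AT, for 48 hours at 37°C. Illumina sequencing covered plasmids before and after selection; three replicate libraries were pooled and variants with under 10 reads dropped. A fitness score is the log change in variant-to-wild-type read ratio, rescaled to the cognate and non-cognate references.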
As for ECPS, the “one-hybrid fitness for binding parS DNA” value is at most 0.2.

Consider HIFR, for which the “one-hybrid fitness for binding parS DNA” value is at most 0.2.

With LRRN, the “one-hybrid fitness for binding parS DNA” value is at most 0.2.

With DTQR, the “one-hybrid fitness for binding parS DNA” value is at most 0.2.

For the variant HHMS, the “one-hybrid fitness for binding parS DNA” value was at most 0.2.

Regarding LPSF, the “one-hybrid fitness for binding parS DNA” value is at most 0.2.

SPIS: the “one-hybrid fitness for binding parS DNA” value is at most 0.2.

As to CSSG, the “one-hybrid fitness for binding parS DNA” value was at most 0.2.

Regarding GPAI, the “one-hybrid fitness for binding parS DNA” value is at most 0.2.

Consider RVKC, for which the “one-hybrid fitness for binding parS DNA” value stood at 0.813.

VFMG: the “one-hybrid fitness for binding parS DNA” value was at most 0.2.

For the variant MPRH, the “one-hybrid fitness for binding parS DNA” value is at most 0.2.

Turning to GWHV, the “one-hybrid fitness for binding parS DNA” value was at most 0.2.

With PCFT, the “one-hybrid fitness for binding parS DNA” value was at most 0.2.

With TISN, the “one-hybrid fitness for binding parS DNA” value was at most 0.2.

As for GHPS, the “one-hybrid fitness for binding parS DNA” value is at most 0.2.

Turning to LPYH, the “one-hybrid fitness for binding parS DNA” value is at most 0.2.

Regarding MFRF, the “one-hybrid fitness for binding parS DNA” value is at most 0.2.

As for SLHV, the “one-hybrid fitness for binding parS DNA” value was at most 0.2.

For ENIT, the “one-hybrid fitness for binding parS DNA” value was at most 0.2.

As for LPFG, the “one-hybrid fitness for binding parS DNA” value is at most 0.2.

As to QQRK, the “one-hybrid fitness for binding parS DNA” value was at most 0.2.

YRTW: the “one-hybrid fitness for binding parS DNA” value was at most 0.2.

As to GLTL, the “one-hybrid fitness for binding parS DNA” value is at most 0.2.

As to IGLT, the “one-hybrid fitness for binding parS DNA” value was at most 0.2.

Consider MTII, for which the “one-hybrid fitness for binding parS DNA” value was at most 0.2.

Turning to VRKY, the “one-hybrid fitness for binding parS DNA” value is at most 0.2.

In the case of IFLY, the “one-hybrid fitness for binding parS DNA” value was at most 0.2.

In the case of MDAV, the “one-hybrid fitness for binding parS DNA” value is at most 0.2.

For DRNS, the “one-hybrid fitness for binding parS DNA” value is at most 0.2.

IYKI: the “one-hybrid fitness for binding parS DNA” value was at most 0.2.

Turning to MIME, the “one-hybrid fitness for binding parS DNA” value was at most 0.2.

For NIQC, the “one-hybrid fitness for binding parS DNA” value is at most 0.2.

With QMIT, the “one-hybrid fitness for binding parS DNA” value is at most 0.2.

Regarding PEDC, the “one-hybrid fitness for binding parS DNA” value is at most 0.2.

Regarding TNHD, the “one-hybrid fitness for binding parS DNA” value is at most 0.2.

Turning to KMNY, the “one-hybrid fitness for binding parS DNA” value is at most 0.2.

For RMYR, the “one-hybrid fitness for binding parS DNA” value stood at 0.225.

With FNKL, the “one-hybrid fitness for binding parS DNA” value was at most 0.2.

In the case of RNTH, the “one-hybrid fitness for binding parS DNA” value is at most 0.2.

Consider EMIR, for which the “one-hybrid fitness for binding parS DNA” value is at most 0.2.

For HRLD, the “one-hybrid fitness for binding parS DNA” value is at most 0.2.

On to GCST, for which the “one-hybrid fitness for binding parS DNA” value was at most 0.2.

As to PFER, the “one-hybrid fitness for binding parS DNA” value was at most 0.2.

In the case of VISK, the “one-hybrid fitness for binding parS DNA” value is at most 0.2.

As to KKPC, the “one-hybrid fitness for binding parS DNA” value is at most 0.2.

VIDR: the “one-hybrid fitness for binding parS DNA” value was at most 0.2.

Consider DPQD, for which the “one-hybrid fitness for binding parS DNA” value was at most 0.2.

For FPFF, the “one-hybrid fitness for binding parS DNA” value is at most 0.2.

On to CFML, for which the “one-hybrid fitness for binding parS DNA” value was at most 0.2.

In the case of TMEG, the “one-hybrid fitness for binding parS DNA” value was at most 0.2.

Turning to TYLT, the “one-hybrid fitness for binding parS DNA” value is at most 0.2.

Turning to GLMG, the “one-hybrid fitness for binding parS DNA” value is at most 0.2.

As to RMYP, the “one-hybrid fitness for binding parS DNA” value is at most 0.2.

As for DTAV, the “one-hybrid fitness for binding parS DNA” value was at most 0.2.

As for VPYS, the “one-hybrid fitness for binding parS DNA” value was at most 0.2.

With KLMT, the “one-hybrid fitness for binding parS DNA” value was at most 0.2.

Consider NPDR, for which the “one-hybrid fitness for binding parS DNA” value was at most 0.2.

Take HSAG: the “one-hybrid fitness for binding parS DNA” value was at most 0.2.

As for HVVD, the “one-hybrid fitness for binding parS DNA” value was at most 0.2.

On to DVRA, for which the “one-hybrid fitness for binding parS DNA” value was at most 0.2.

Consider THML, for which the “one-hybrid fitness for binding parS DNA” value is at most 0.2.

As for ANGA, the “one-hybrid fitness for binding parS DNA” value was at most 0.2.

Turning to TKLI, the “one-hybrid fitness for binding parS DNA” value was at most 0.2.

As for VPLS, the “one-hybrid fitness for binding parS DNA” value was at most 0.2.

As for HSPH, the “one-hybrid fitness for binding parS DNA” value was at most 0.2.

In the case of SEHG, the “one-hybrid fitness for binding parS DNA” value is at most 0.2.

With SCWG, the “one-hybrid fitness for binding parS DNA” value was at most 0.2.

HYIY: the “one-hybrid fitness for binding parS DNA” value was at most 0.2.

Regarding KRYG, the “one-hybrid fitness for binding parS DNA” value is at most 0.2.

For the variant RHPK, the “one-hybrid fitness for binding parS DNA” value was at most 0.2.

Consider SHER, for which the “one-hybrid fitness for binding parS DNA” value was at most 0.2.

Regarding ASST, the “one-hybrid fitness for binding parS DNA” value was at most 0.2.

For FCND, the “one-hybrid fitness for binding parS DNA” value is at most 0.2.

As for AYGK, the “one-hybrid fitness for binding parS DNA” value was at most 0.2.

In the case of NANR, the “one-hybrid fitness for binding parS DNA” value was at most 0.2.

YLMC: the “one-hybrid fitness for binding parS DNA” value is at most 0.2.

For the variant GPDK, the “one-hybrid fitness for binding parS DNA” value was at most 0.2.

For IVCS, the “one-hybrid fitness for binding parS DNA” value was at most 0.2.

Regarding RMRS, the “one-hybrid fitness for binding parS DNA” value is 0.868.

Regarding KRQK, the “one-hybrid fitness for binding parS DNA” value is at most 0.2.

In the case of QAEY, the “one-hybrid fitness for binding parS DNA” value was at most 0.2.

Regarding YTTN, the “one-hybrid fitness for binding parS DNA” value was at most 0.2.

Regarding VWIS, the “one-hybrid fitness for binding parS DNA” value was at most 0.2.

Turning to ECPA, the “one-hybrid fitness for binding parS DNA” value is at most 0.2.

As for TRGY, the “one-hybrid fitness for binding parS DNA” value was at most 0.2.

Consider FSPC, for which the “one-hybrid fitness for binding parS DNA” value was at most 0.2.

With IITW, the “one-hybrid fitness for binding parS DNA” value is at most 0.2.

As to VSDA, the “one-hybrid fitness for binding parS DNA” value is at most 0.2.

Turning to NAGV, the “one-hybrid fitness for binding parS DNA” value is at most 0.2.

In the case of TRYQ, the “one-hybrid fitness for binding parS DNA” value is at most 0.2.

In the case of MYRM, the “one-hybrid fitness for binding parS DNA” value is at most 0.2.

For FDTC, the “one-hybrid fitness for binding parS DNA” value is at most 0.2.

GFVG: the “one-hybrid fitness for binding parS DNA” value is at most 0.2.

Consider RSNV, for which the “one-hybrid fitness for binding parS DNA” value is at most 0.2.

As for IDKY, the “one-hybrid fitness for binding parS DNA” value was at most 0.2.

As to YSSR, the “one-hybrid fitness for binding parS DNA” value was at most 0.2.

As for NMRR, the “one-hybrid fitness for binding parS DNA” value is at most 0.2.

As for TMTL, the “one-hybrid fitness for binding parS DNA” value was at most 0.2.

In the case of QQTI, the “one-hybrid fitness for binding parS DNA” value is at most 0.2.

Consider PKNM, for which the “one-hybrid fitness for binding parS DNA” value is at most 0.2.

With STIR, the “one-hybrid fitness for binding parS DNA” value was at most 0.2.

For the variant DKIC, the “one-hybrid fitness for binding parS DNA” value was at most 0.2.

Take YDTP: the “one-hybrid fitness for binding parS DNA” value was at most 0.2.

Consider MSYR, for which the “one-hybrid fitness for binding parS DNA” value was at most 0.2.

For the variant GRNF, the “one-hybrid fitness for binding parS DNA” value is at most 0.2.

Take VCPA: the “one-hybrid fitness for binding parS DNA” value was at most 0.2.

RVGL: the “one-hybrid fitness for binding parS DNA” value is at most 0.2.

In the case of MCSS, the “one-hybrid fitness for binding parS DNA” value is at most 0.2.

Turning to RRNN, the “one-hybrid fitness for binding parS DNA” value stood at 0.811.

Take AFTI: the “one-hybrid fitness for binding parS DNA” value was at most 0.2.

As for TNNY, the “one-hybrid fitness for binding parS DNA” value is at most 0.2.

As to QHMC, the “one-hybrid fitness for binding parS DNA” value is at most 0.2.

In the case of FPWR, the “one-hybrid fitness for binding parS DNA” value was at most 0.2.

In the case of QNLK, the “one-hybrid fitness for binding parS DNA” value was at most 0.2.

Take AYRD: the “one-hybrid fitness for binding parS DNA” value was at most 0.2.

Turning to ALSG, the “one-hybrid fitness for binding parS DNA” value is at most 0.2.

Regarding LYYS, the “one-hybrid fitness for binding parS DNA” value is at most 0.2.

As for TQST, the “one-hybrid fitness for binding parS DNA” value is at most 0.2.

EMCR: the “one-hybrid fitness for binding parS DNA” value was at most 0.2.

LPTT: the “one-hybrid fitness for binding parS DNA” value is at most 0.2.

FYYR: the “one-hybrid fitness for binding parS DNA” value was at most 0.2.

For the variant FAEG, the “one-hybrid fitness for binding parS DNA” value was at most 0.2.

On to CHTA, for which the “one-hybrid fitness for binding parS DNA” value is at most 0.2.

Consider NIVR, for which the “one-hybrid fitness for binding parS DNA” value is at most 0.2.

SCKA: the “one-hybrid fitness for binding parS DNA” value was at most 0.2.

As to NGPS, the “one-hybrid fitness for binding parS DNA” value was at most 0.2.

For the variant MLCG, the “one-hybrid fitness for binding parS DNA” value was at most 0.2.

For PPGN, the “one-hybrid fitness for binding parS DNA” value is at most 0.2.

Consider DGNA, for which the “one-hybrid fitness for binding parS DNA” value is at most 0.2.

On to MWYG, for which the “one-hybrid fitness for binding parS DNA” value was at most 0.2.

On to RRVH, for which the “one-hybrid fitness for binding parS DNA” value was at most 0.2.

In the case of EKRV, the “one-hybrid fitness for binding parS DNA” value is at most 0.2.

Take NMDV: the “one-hybrid fitness for binding parS DNA” value is at most 0.2.

With PDTT, the “one-hybrid fitness for binding parS DNA” value was at most 0.2.

With HQFS, the “one-hybrid fitness for binding parS DNA” value was at most 0.2.

As to KDWW, the “one-hybrid fitness for binding parS DNA” value is at most 0.2.

ERSL: the “one-hybrid fitness for binding parS DNA” value is at most 0.2.

Take ETKL: the “one-hybrid fitness for binding parS DNA” value was at most 0.2.

Consider KPLL, for which the “one-hybrid fitness for binding parS DNA” value is at most 0.2.

Regarding CPYN, the “one-hybrid fitness for binding parS DNA” value was at most 0.2.

For the variant PINC, the “one-hybrid fitness for binding parS DNA” value is at most 0.2.

Take IVPC: the “one-hybrid fitness for binding parS DNA” value is at most 0.2.

Consider PTQG, for which the “one-hybrid fitness for binding parS DNA” value is at most 0.2.

With YMAL, the “one-hybrid fitness for binding parS DNA” value was at most 0.2.

In the case of LVVD, the “one-hybrid fitness for binding parS DNA” value is at most 0.2.

Regarding YPRR, the “one-hybrid fitness for binding parS DNA” value is at most 0.2.

As for KQMI, the “one-hybrid fitness for binding parS DNA” value was at most 0.2.

For LHYS, the “one-hybrid fitness for binding parS DNA” value was at most 0.2.

With HVKA, the “one-hybrid fitness for binding parS DNA” value is at most 0.2.

On to TNPL, for which the “one-hybrid fitness for binding parS DNA” value is at most 0.2.

CRIR: the “one-hybrid fitness for binding parS DNA” value was at most 0.2.

SEQQ: the “one-hybrid fitness for binding parS DNA” value is at most 0.2.
